# In article doi:10.1101/2025.07.22.666130 (bioRxiv, 2025):
# B1: Human RPA32C ([…]) (domain or fragment)
# chain: not shown
# Molecular target: T1, 15N-labeled RAD52-CTD (217-418), GST tag cleaved (human, UniProt P43351 217-418, uniformly 15N labeled)
# T1 sequence: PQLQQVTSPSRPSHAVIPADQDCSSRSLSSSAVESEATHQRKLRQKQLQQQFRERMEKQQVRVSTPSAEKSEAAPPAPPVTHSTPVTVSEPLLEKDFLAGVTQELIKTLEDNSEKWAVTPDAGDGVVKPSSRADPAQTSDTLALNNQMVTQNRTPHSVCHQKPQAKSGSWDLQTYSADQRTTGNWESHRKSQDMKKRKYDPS
# Experiment: NMR titration
binder,measurement,value
B1,binding result,binds
